This test relates to PDC 521955-158-R6-J3 spheroids, viability. The test can be described thus: Anticancer human tumor 521955-158-R6-J3-PDC patient-derived pancreatic carcinoma cell line growth inhibition [TAK]. To be noted: stronger effect = lower value, spheroids with HUVEC and MSC. The source says:
Combinatorial screen of targeted agents with TAK-243 and ipatasertib in multi-cell type tumor spheroids
A high-throughput screen of multi-cell type tumor spheroids was designed to identify active combinations of targeted small molecules and TAK-243 or ipatasertib. Complex spheroids include a stromal component modeled by human endothelial cells (HUVEC) and fibroblasts modeled by human mesenchymal stem cells (MSCs). The concentration ranges selected for each drug and investigational agent were based upon clinically achievable concentrations if the clinical Cmax of the agent was known.
Compounds. The drugs and investigational agents: TAK-243 (785004), ipatasertib (767898), everolimus (733504), selumetinib (741078), bortezomib (756655), trametinib (758246), ixazomib (758254), vemurafenib (761431), dabrafenib (764134), sapanisertib (764658), alpelisib (765974), and copanlisib (816437), were obtained from the National Cancer Institute (NCI) Developmental Therapeutics Program Chemical Repository. The FDA-approved anticancer drug set is available from the NCI Developmental Therapeutics Program. […] The stock solutions were prepared in dimethyl sulfoxide (DMSO, Sigma-Aldrich, St. Louis, MO, cat. D2650) at 800-fold the tested concentration and stored at -70 degrees C prior to their use. All drugs and investigational agents were tested over a range starting from a high concentration at or near the clinical Cmax and decreasing in half-log increments. If the clinical Cmax for an agent had not been determined, the highest concentration tested was 10 microM.
NCI60 Cell Culture. NCI60 cell lines were obtained from the NCI Developmental Therapeutics Program Tumor Repository. For each lot of cells, the Repository performed Applied Biosystems AmpFLSTR Identifiler testing with PCR amplification to confirm consistency with the published Identifier STR profile for each cell line. Cells were kept in continuous culture for no more than 20 passages. The optimal seeding densities for each of the cell lines at each time point assessed were determined prior to performing the concentration response studies. Briefly, the NCI60 human tumor lines were grown as monolayers in RPMI 1640 medium supplemented with 10% FBS and 2 mmol/L L-glutamine.
An additional 2 lines were from the NCI60 cell line panel including melanomas, MALME-3M and SK-MEL-2. Pooled donor human umbilical vein endothelial cells (HUVEC, Lonza, cat. CC-2519) and human mesenchymal stem cells (hMSC, Lonza, cat. PT-2501) were purchased from Lonza (Walkersville, MD). […]
For the pre-screen, cell seeding densities were determined from a titration spanning the range from 5,000 to 313 cells per well. […]

Some entries of the source have several records that differ or are many. This list holds those alone. An entry can have further records. Values given together are repeated measurements across runs, samples, wells, individuals or studies. Dates in brackets are months of testing.
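Also: spheroids exposed to drugs for 7 days before readout; 100% = DMSO vehicle control viability.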

Consider `CC(C)NCC(C(=O)N1CCN(c2ncnc3c2C(C)CC3O)CC1)c1ccc(Cl)cc1` (centres undefined), for which the viability, T/C is, setting by setting: (compound alone 0.949 µM) 87.7% [2020-02] and 104, 105, 99.2, 91, 98.1, 76.3, 74.8, 72.9, 73.1% [2020-03]; (compound alone 3 µM) 89.5% [2020-02] and 102, 98.5, 92.6, 87, 89.4, 79, 76.4, 67.3, 67.4% [2020-03]; (compound alone 9.49 µM) 88.9% [2020-02] and 102, 101, 96.1, 98.2, 96.5, 82.2, 72.6, 73.2, 72.7% [2020-03]; (compound alone 30 µM) 100% [2020-02] and 107, 93.5, 98.8, 87, 91.7, 78.6, 70.5, 67.1, 68.4% [2020-03].

The values above are taken from PubChem BioAssay AID2060350 (Molecular Pharmacology Branch, DTP, NCI, 2025).
